Assay results taken from the supplement of paper PMC11417369.
The list shows a part of the results.

What follows are sequences tested on PF3D7_0420300 AP2 domain 1 (GST-tagged) (assay: gcPBM binding intensity (ln(normalized median fluorescence intensity)); higher = stronger DNA binding).
Procedure, shortened: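 Binding intensity values are the highest Masliner-normalised natural-log median intensity among replicate spots of either probe orientation. The binding step lasted 1 h in 1× PBS with 1% milk, 0.2 mg/ml BSA, 0.5% salmon testes DNA and 0.03% Triton X-100, using GST-tagged P. falciparum DNA-binding domains expressed in E. coli on an Agilent 4 × 180k array of primer-extended double-stranded 36-bp intergenic genomic probes plus negative controls. Alexa488 anti-GST antibody and a 488 nm scan detected bound protein.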

| Sequence | gcPBM binding intensity (ln) |
| --- | --- |
| TCCTTACACACACTTTTTTTTTTTTTTTTTTCTACA [GTGCAC_negctrl_site263] | 9.85 |
| CTCGATCAAGTGTATGCATGTACCAGTGAACAAAAA [TGCATGCA_site635] | 9.24 |
| GATTCGATCTATATATGTACACATAAATATTTTTTG [XGTACX_site7015] | 9.3 |
| TATATATATATATATATATATATATATGTGTATGTA [TGCATGCA_negctrl_site255] | 9.55 |
| TATATATTTATTTATTGTACACTCTTTAAGAATACA [XGTACX_site2569] | 9.01 |
| AATAAAATTGACCATTCACACAAGAAAAATTAATCA [CACACA_site5636] | 9.29 |
| ATACACAAGAATATGTTGCACTTTTATATTCGTATG | 9.33 |
| AATATTTATATTAACTGTACAGAAAATATCTTTGCT [XGTACX_site8130] | 9.04 |
| CATAAGATTTTTACATGTACATATTTATAATATATT [XGTACX_site6578] | 9.36 |
| TTCTTTTTTTTTTTTTCATGTATATTAAACTTTTCA [TGCATGCA_negctrl_site592] | 9.41 |
| GATATATAAATTGACACACACATATATACCTATATA [CACACA_site6689] | 9.83 |
| AATATAAAAATGTTTACACACACACCGAAATATATT [CACACA_site8800] | 10.1 |
| TATGCCATGGCATAATGTACATAAGTGACCTCATAA [XGTACX_site1294] | 9.06 |
| TGTATTAAAAATTTGGTGCAACTTTTACATAATAAT | 9.11 |
| TTTTTTTTTTTTTTTTGTACGAATAAACAAGTTATT [XGTACX_site5473] | 8.64 |
| ATATATATATATATATGTACATATTTTATTTAATTT [XGTACX_site1807] | 9.05 |
| AAAAAAAAAAATAAATGTACAAAATAATGGGGAACA [XGTACX_site8723] | 9.84 |
| GTGAATGATTTAAGTACACACCGGTATTTATTCAAA [CACACA_site4950] | 9.26 |
| AAAAAAAAAAAATACACACACACATATTTATTTATA [CACACA_site6483] | 10.1 |
| AAGAAAAAAAAAAAAAATATATATATAAGAACATAT [TGCATGCA_negctrl_site131] | 9.33 |
| GATAAAACGTTATGCACACGTACGTGGGTATTTATA [CACACA_site4954] | 9.29 |
| AATCTGATTTGTATATGTACACAAATATTTTTATTT [XGTACX_site5295] | 9.25 |
| TTTAATAATTATTAAAGTACAAAATAAATATTGAAT [XGTACX_site7538] | 9.19 |

| Sequence | gcPBM binding intensity (ln) |
| --- | --- |
| TATAAAAAAATATATATATATATATATATATAAATA [TGCATGCA_negctrl_site22] | 8.88 |
| AACTGTACAATTTTTGTGCACAATAATTATTAATAT [GTGCAC_site9462] | 9.21 |
| ATATTTTTATTTAAACGTACATACACGTTGAAAAGA [XGTACX_site4567] | 8.99 |
| TGCTATATAATATGAGCACACATAAGATTTGGTGTT [CACACA_site8148] | 9.23 |
| TTTTTCTTTTGATGTTGTACATATATATTATATATA [XGTACX_site2754] | 9.22 |
| TTTTCAATTAATAATACACACATGTATATATCATTA [CACACA_site7539] | 9.35 |
| TAATGCATTATTAGAATACACACCATACGCATATTT [CACACA_site289] | 9.39 |
| TGATGTTGTAACAAAAGTACACACACATTTCTATAA [XGTACX_site5837] | 9.38 |
| AATTAGCTATTTAAAAATATATAAAATTTATATATA [CACACA_negctrl_site390] | 8.77 |
| GAAATAGAGAGACACACACACATATATTTATGTATT [CACACA_site7794] | 9.93 |
| ATCATATTGAATATTTAACACACATTTCGCTTAATT [CACACA_site8652] | 9.63 |
| AAAATGTAGAAATGGGTGCACACACATATATAATAT | 9.82 |
| TATATATATAAAAGTTGTACAGTGTTTTATATAGTT [XGTACX_site7085] | 9.25 |
| TTATGTAAAATCGATACATGCATTAATCATTTTATA [TGCATGCA_site493] | 9.12 |
| TCATATTTCCATAGGAGTACATAAAAAAAATAATAT [XGTACX_site7601] | 9.15 |
| TATGATATGTTATACACACACGTATTTATGAATTGA [CACACA_site7591] | 9.67 |
| ATTTATATTAATGGATAAATAAATGTGTACTTGATA [CACACA_negctrl_site24] | 9.17 |
| TTCTTTATTATATGCACACGTACATATAATATATAT [CACACA_site2018] | 9.42 |
| ATCAACAAAACATACACACACATATAGATTTATATA [CACACA_site7415] | 10 |
| AAAAAAAAAAAACACACACACATATATATATATATA [CACACA_site732] | 9.75 |
| TTTTTTTTTTTTTGCACACACATAATAGGTACAAAT [CACACA_site3577] | 9.59 |
| TTTTTTTTTTTTTTCTCACACATTTAATGATAATAT [CACACA_site5513] | 9.14 |
